# According to PubChem BioAssay AID485297 (National Center for Advancing Translational Sciences (NCATS), 2010):
# Hit rate of the full screen: of about 320,000 compounds, about 9,100 (2.8%) were called active. Inconclusive results, whose numbers are uncertain, are shown with a selection of clear calls. The call rests on the fitted dose curve; in most records, active means well fitted activation curve with a large enough effect; inconclusive means small, poorly fitted or top-dose-only effect; inactive means no such curve, though single readings can be large or run the other way. No potency is given beside an inconclusive call; the fits are too rough.
# Assay: qHTS Assay for Rab9 Promoter Activators; further: nearly all actives have a fitted effect of over 60% in size; on activation, negative = inhibition: % of control where 0% means no effect
# Conditions: Huh7 Rab9 promoter-luciferase reporter, luminescence, 24 h; series mostly up to 9.22 µM
# Summary of the method: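 Steps: seed 1500 Huh7 Rab9-luc cells per well, rest 2 h at 37 °C; add compound in DMSO; incubate 24 h; add luciferase reagent, 10 min ambient; read luminescence.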
# Potency means the concentration at half of the fitted maximal effect; tags describe the fitted curve by direction and shape.
Structure (SMILES),Potency,"activation, negative = inhibition"
CCc1nnc(NC(=O)c2cccc(OC)c2)s1,active: 3160 nM,–
COCC(C)n1c(SCc2cc(C(=O)OC)c(C)o2)nc2ccccc2c1=O (centres undefined),inactive,–
CCc1nonc1NC(=O)c1oc2ccc(C)cc2c1C,"inconclusive [activator, partial curve]",–
O=C(Cc1ccc(O)cc1)NC1CCCCCC1,"inconclusive [activator, partial curve]",–
Cc1cc(NC(=O)c2ccccc2)ncc1NC(=O)c1ccco1,active: 1410 nM,–
COc1ccc(-c2cc(C(=O)N3CCN(c4ccccc4O)CC3)c3ccccc3n2)cc1,active: 2000 nM,–
CC1(c2ccccc2)NC(=O)N(CC(=O)Nc2ccc(C(N)=O)cc2)C1=O (centres undefined),inactive,–
CCC(=O)Nc1ccc2oc(-c3cccnc3)nc2c1,active: 3550 nM,–
CCOc1ccc(N2Nc3n[nH]c(N)c3N2)cc1,"inconclusive [activator, single point]",–
COc1ccc(-c2cc(C(=O)NC(C(=O)O)C(C)C)c(C)o2)cc1OC (centres undefined),"inconclusive [activator, single point]",–
CCN1CCN(Cc2ccc(NC(=O)Nc3ccc(SC)cc3)cc2)CC1,"inconclusive [activator, single point]",–
CC(=O)c1sc2nc(C)cc(C)c2c1N,inactive,–
COc1ccccc1-c1ccc(NC2CCCCC2)nn1,"inconclusive [activator, partial curve]",–
COCCN1CN=C(Nc2nc3ccccc3o2)NC1,"inconclusive [activator, partial curve]",–
COc1ccc(-c2cc3ccccc3oc2=O)cc1NC(=O)c1ccc(Br)o1,"inconclusive [activator, partial curve]",–
CC(=O)N1CCN(Cc2nc3cc(NC(=O)c4cccc(Br)c4)ccc3n2C)CC1,"inconclusive [activator, single point]",–
CCN(C(=O)COC(=O)CNC(=O)c1sc2ccccc2c1Cl)C1CCCCC1,inactive,–
Cc1ccc(CNC(=O)Nc2cccs2)cc1,"inconclusive [activator, single point]",–
C/C(=N\NC(=O)c1ccccc1)c1ccccc1Br,"inconclusive [activator, single point]",–
Cc1cc(NC(=O)c2ccc([N+](=O)[O-])cc2Cl)no1,"inconclusive [activator, partial curve]",–
O=C(CSc1ncn[nH]1)Nc1ccc2c(c1)OCCO2,"inconclusive [activator, single point]",–
O=C(c1ccc2oc(CCc3ccccc3)nc2c1)N1CCC(O)CC1,active: 1000 nM,–
C/C(=N\NC(=O)c1cccc(S(=O)(=O)N2CCCC2)c1)c1ccc(F)cc1,inactive,–
c1ccc(Cn2cc(CSc3ccccc3)nn2)cc1,"inconclusive [activator, partial curve]",–
O=C1/C(=C/c2cccs2)Sc2ccccc21,"inconclusive [activator, single point]",–
CN1CCC(=NNC(=O)C(=O)Nc2ccc(F)cc2)CC1,"inconclusive [activator, single point]",–
CCOC(=O)c1c(C)[nH]c(C(=O)Cn2nnc(-c3ccccc3Cl)n2)c1C,"inconclusive [activator, partial curve]",–

Structure (SMILES),Potency,"activation, negative = inhibition"
O=C(COC(=O)c1cc(=O)[nH]c2ccccc12)Nc1ccc(Cl)cn1,inactive,–
CCc1ccc(C(=O)COC(=O)c2n[nH]c3ccccc23)cc1,active: 891 nM,–
C[n+]1cc[nH]c1SCC(=O)c1ccccc1,"inconclusive [activator, partial curve]",–
O=C(CSc1ccccc1)Nc1nc2ccccc2[nH]1,"inconclusive [activator, single point]",–
CC(C)CC(=O)NC(=S)Nc1sc2c(c1C(N)=O)CCC2,"inconclusive [activator, single point]",–
CCS(=O)(=O)Nc1ccc(C2=NN(C(=O)c3ccco3)C(c3cccs3)C2)cc1 (centres undefined),inactive,–
O=C(CN1C(=O)C2C3CC(C(Br)C3Br)C2C1=O)Nc1ccc(C(=O)O)cc1 (centres undefined),inactive,–
O=C(O)c1cccc(N=NN2CCCCCC2)c1,active: 282 nM,–
O=C(Nc1ncc2c(n1)-c1ccccc1CC2)c1ccccc1,inactive,–
N/C(=N\c1nc2ccccc2o1)NC(=O)c1ccccc1F,active: 2510 nM,–
Cc1cccc(C(=O)c2c(N)sc3c2CCC(C)C3)c1 (centres undefined),"inconclusive [activator, single point]",–
COc1ccc(-c2nnc(SCC(=O)Nc3cc(F)ccc3C)o2)cc1,"inconclusive [activator, partial curve]",–
CCC(C)c1ccc(OCc2ccc(C(=O)O)o2)cc1 (centres undefined),"inconclusive [activator, full curve, poor fit]",–
COc1ccc(-c2cc(-c3c(O)c(OC)c4occc4c3OC)[nH]n2)cc1,inactive,–
CCOc1ccc(C(=O)CSc2nnc3ccccn23)cc1,active: 1120 nM,–
CN(C)S(=O)(=O)Oc1cccc(C(=O)Nc2ccccc2Cl)c1,active: 5620 nM,–
Cc1ccc(C(=O)Nc2ccc(Cl)cn2)cc1,"inconclusive [activator, full curve]",–
COc1ccc2c(c1O)C(=O)c1ccccc1C2=O,"inconclusive [activator, partial curve]",–
O=S(=O)(c1ccccc1)N1CCCN(S(=O)(=O)c2ccccc2)CC1,inactive,–
CC(=O)c1cccc(NC(=O)N2CCOCC2)c1,"inconclusive [activator, full curve]",–
C(=C\c1nc(-c2cccnc2)no1)/c1ccccc1,"inconclusive [activator, partial curve]",–
CC(C)CCOc1ccc(C2(C)NC(=O)NC2=O)cc1 (centres undefined),inactive,–
COc1cccc(NC(=O)Nc2ccc3c(c2)OCO3)c1,active: 1410 nM,–
COc1ccccc1NC(=O)CSc1nnc(-c2ccccn2)o1,"inconclusive [activator, partial curve]",–
O=C(Nc1ccc2nccnc2c1)c1cnccn1,"inconclusive [activator, partial curve]",–
COc1ccc(NC(=S)N2CCC(NC(=O)C3CCCCC3)CC2)cc1,inactive,–
Cc1ccc(CNc2ccc(N3CCOCC3)cc2)s1,active: 3550 nM,–

Structure (SMILES),Potency,"activation, negative = inhibition"
O=C(CCC1CCCC1)Nc1ccc(Br)cn1,active: 2240 nM,–
CC(OC(=O)c1cccc(-n2cnnn2)c1)C(=O)Nc1ccc(F)cc1 (centres undefined),inactive,–
Cc1cc(-c2ccccc2)nc(-c2ccccc2)c1C,"inconclusive [activator, single point]",–
CCCn1nc(C(=O)NCC2COc3ccccc3O2)c2ccccc2c1=O (centres undefined),inactive,–
CN(C)c1ccc(NC(=S)NC23CC4CC(CC(C4)C2)C3)cc1,"inconclusive [activator, partial curve]",–
COc1cc(C2C(C#N)=C(N)OC3=C2C(=O)CC(C)(C)C3)ccc1OCCN1CCOCC1 (centres undefined),"inconclusive [activator, partial curve]",–
COc1ccc(/C=C2\N=C(SC)N(c3ccccc3OC)C2=O)cc1,"inconclusive [activator, partial curve]",–
Cc1nn(-c2ccc(Cl)c(Cl)c2Cl)c(=O)c2ccccc12,inactive,–
O=C(CN1CCCCCC1)Nc1c(Cl)cc(Cl)cc1Cl,"inconclusive [activator, partial curve]",–
COc1ccc(CN2C(=O)c3ccccc3C(/C=N\OCc3ccc(F)cc3)C2=O)cc1 (centres undefined),inactive,–
Cc1ccc2sc(NC(=O)C3CC3)nc2c1C,"inconclusive [activator, partial curve]",–
O=[N+]([O-])c1ccc(-c2nc(Nc3cccc(O)c3)c3ccccc3n2)cc1,–,inactive: -3.82% [at 1.84 µM]
COc1ccc(Cc2noc(-c3ccccc3)n2)cc1OC,inactive,–
O=C(Nc1ccc(Br)cc1)C1CC(c2c(F)cccc2Cl)=NO1 (centres undefined),"inconclusive [activator, partial curve]",–
O=C(O)c1cccc(Nc2nc(-c3cc4ccccc4oc3=O)cs2)c1,"inconclusive [activator, partial curve]",–
COc1ccc2c(c1)CCc1c(C(=O)N3CCOCC3)noc1-2,active: 3160 nM,–
O=C(CCCCCCC(=O)NCc1ccccc1)NCc1ccccc1,inactive,–
NS(=O)(=O)c1cc(C(=O)OCC(=O)N2CCc3ccccc3C2)ccc1Cl,inactive,–
CCOC(=O)c1ccc2nc(C)c(CCC(C)=O)c(Cl)c2c1,"inconclusive [activator, partial curve]",–
O=C(O)c1ccc2nc3c(nc2c1)-c1ccccc1C3=O,"inconclusive [activator, single point]",–
CCCCCOC(=O)c1[nH]c2c(c1C)C(=O)C(C(=O)OC)C(C)C2 (centres undefined),"inconclusive [activator, partial curve]",–
COCC1CCN(C(=O)c2ccc3oc(CCCc4ccccc4)nc3c2)C1 (centres undefined),"inconclusive [activator, single point]",–
COc1ccccc1N1CCN(C(=O)CSc2ccccc2)CC1,"inconclusive [activator, single point]",–
CC(=O)c1cccc(NC(=S)NC(=O)c2cncc(Br)c2)c1,"inconclusive [activator, partial curve]",–
O=C(CCC(=O)N1CCOc2ccccc21)Nc1ccccc1Br,inactive,–
